# Measurements as given in publication PMC4336329 (PLoS ONE, 2015).
# About 14,000 (4.5%) of roughly 310,000 compounds showed an effect of 50% or more. Effects have a minus sign here. This is one part of the list.
# Biological target: human ether-à-go-go-related gene (hERG) potassium channel (human, UniProt Q12809)
# Assay: primary screen, population patch clamp on CHO cells stably expressing hERG
# 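Note: peak tail current of the secondary pulse compared with the same well before compound.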
# human ether-à-go-go-related gene (hERG) potassium channel, sequence (Q12809 whole entry, looked up): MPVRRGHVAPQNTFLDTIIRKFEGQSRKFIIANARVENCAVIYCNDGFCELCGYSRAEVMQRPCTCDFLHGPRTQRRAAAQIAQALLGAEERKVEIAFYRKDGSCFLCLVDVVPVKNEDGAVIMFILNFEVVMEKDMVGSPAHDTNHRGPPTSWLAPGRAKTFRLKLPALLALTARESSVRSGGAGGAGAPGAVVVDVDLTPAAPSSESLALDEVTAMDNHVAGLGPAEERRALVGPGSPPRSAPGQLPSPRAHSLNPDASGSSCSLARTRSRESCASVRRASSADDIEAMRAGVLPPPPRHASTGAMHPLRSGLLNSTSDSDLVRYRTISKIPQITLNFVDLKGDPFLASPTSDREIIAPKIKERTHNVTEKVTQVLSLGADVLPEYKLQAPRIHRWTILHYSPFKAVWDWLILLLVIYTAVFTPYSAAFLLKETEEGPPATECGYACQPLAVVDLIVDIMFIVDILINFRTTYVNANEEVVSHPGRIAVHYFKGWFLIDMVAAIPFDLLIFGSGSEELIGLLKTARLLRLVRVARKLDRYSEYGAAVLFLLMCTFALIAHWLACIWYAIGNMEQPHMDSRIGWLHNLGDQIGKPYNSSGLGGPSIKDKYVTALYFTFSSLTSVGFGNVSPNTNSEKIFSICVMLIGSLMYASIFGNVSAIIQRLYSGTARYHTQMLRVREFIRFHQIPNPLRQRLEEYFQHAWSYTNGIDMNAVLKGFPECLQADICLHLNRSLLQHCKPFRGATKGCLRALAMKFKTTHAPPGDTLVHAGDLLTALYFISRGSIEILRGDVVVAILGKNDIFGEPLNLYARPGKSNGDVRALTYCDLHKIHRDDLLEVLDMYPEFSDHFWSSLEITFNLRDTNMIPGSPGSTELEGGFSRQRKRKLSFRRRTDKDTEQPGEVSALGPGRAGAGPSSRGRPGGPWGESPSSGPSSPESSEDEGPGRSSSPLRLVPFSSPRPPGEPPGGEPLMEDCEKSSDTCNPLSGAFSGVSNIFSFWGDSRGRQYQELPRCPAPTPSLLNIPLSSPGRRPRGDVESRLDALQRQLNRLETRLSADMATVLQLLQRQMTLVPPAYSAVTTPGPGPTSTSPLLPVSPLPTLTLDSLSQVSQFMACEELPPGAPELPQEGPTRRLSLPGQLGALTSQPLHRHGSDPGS
row,Structure (SMILES),"hERG current change (%, negative = inhibition) at 10uM [%]"
1,Cc1ccc(CNC(=O)c2cccnc2Cl)cc1,9.97
2,Cc1nnc(NC(=O)CCCN2C(=O)c3ccccc3C2=O)s1,6.88
3,Cc1ccccc1-c1nc(CS(=O)CC(=O)NC2CC2)c(C)o1 (stereo not shown),11.8
4,CC(=O)c1cccc(NC(=O)c2ccc3c(c2)CCCC3)c1,-7.8
5,CN1CCN(c2ccccc2NC(=S)NC(=O)c2cc3ccccc3o2)CC1,-16.5
6,CCc1nnc(NS(=O)(=O)c2ccc(NC(=S)NC(=O)c3cccs3)cc2)s1,3.53
7,Cn1cnnc1SCCCN1C(=O)c2cccc3cccc(c23)C1=O,-30.6
8,CCOc1ccc(-c2cc(N3C(=O)Nc4ccccc4N3O)on2)cc1,26.7
9,COc1ccc(C(=O)N2CCCC2)cc1S(=O)(=O)N1CCOCC1,-1.7
10,CCc1ccc(N(C(=O)c2csnn2)C(C(=O)NC(C)(C)C)c2ccccn2)cc1 (stereo not shown),-42.7
11,CNC(=O)c1ccccc1Nc1ccc(SC(F)F)cc1,-1.62
12,CC(=O)c1cccc(NS(=O)(=O)N2CCCCC2)c1,12.5
13,Cc1[nH]c2ccccc2c1C(c1ccncc1)N1CCN(c2ccccc2F)CC1 (stereo not shown),-7.48
14,COc1ccc(-c2cc(C(=O)NCCCn3ccnc3)no2)cc1,-18.1
15,Cc1ccc(NC(=S)N(CCCN2CCN(C)CC2)Cc2cccs2)cc1,-51.3
16,Cc1ccc(S(=O)(=O)N(C)c2c(C)ccc(S(N)(=O)=O)c2C)cc1,-10.9
17,COC(=O)c1sc(-c2ccc(Cl)cc2)cc1NC(=O)c1ccccc1C(=O)O,7.49
18,O=C(N/N=C/c1ccc(Cl)c([N+](=O)[O-])c1)C1CC1,-1.88
19,COc1ccc(C(=O)c2c[nH]c3ccccc23)cc1,-2.93
20,COc1ccccc1N1CCN(C(=O)CN(c2ccccc2OC)S(=O)(=O)c2ccccc2)CC1,-13.4
21,Cc1ncc(CN2CCCC(C(=O)Nc3ccc(-c4cccc(F)c4)cc3)C2)cn1 (stereo not shown),-73.2
22,NC(=O)c1ccsc1NC(=O)COC(=O)Cc1cccc2ccccc12,-23
23,CCOC(=O)CS(=O)(=O)c1ccc2ccccc2c1,-4.08
24,CC1CC1C(=O)OCC(=O)N(C)c1c(N)n(Cc2ccccc2)c(=O)[nH]c1=O (stereo not shown),-33.2
25,COc1cc(/C=N/n2c(-c3ccccc3)n[nH]c2=S)cc(OC)c1OC,7.69
